# This is one part of the list.
# B1: Sebin2 (Coprinopsis cinerea), A8PE78 (protein)
# chain: MTTPFYAYCHNVQDDNTWRLGLVFANRSTADEWWRAISEATSSIPITKSITRVTPQYYTHDIRVWNMYNFFVDGNIKSISDKFRGRLFITLEYDRSGRGVSVFPPLHIVDHVSGNWYYIRSKTAPHLFWFYDETRNAIYASKEKRTRFKVSIRNPSPQTPKDAIMINSDDVVIHIKESLYVGVDSYLGHIIPTRAYRTFKFGELEGGAIAGIEVAENAEERCSSTFDGASLYFVGPDSSSPGEPWELV
# Assays:
# Experiment in all cases: glycan array binding signal (z-score within array); higher = stronger binding
# Settings in all cases: glycan notation: IUPAC condensed, linker removed
# GalNAc(b1-4)GlcNAc = molecular target: GalNAc(b1-4)GlcNAc
# How it was run: (§1)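 Glycan array data were curated from 3228 arrays in the Consortium for Functional Glycomics database and kept only where the protein sequence was available. Glycan names were converted to IUPAC-condensed notation, and columns mapping to the same glycan were averaged. The binding signal is a within-array Z-score, averaged across arrays of the same protein sequence at different concentrations or buffers and across linkers. Negative Z-scores can be read as non-binding.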
# [1] = molecular target: GalNAc(b1-4)GlcNAc(b1-2)Man
# How it was run: as §1
# [2] = molecular target: GalNAc(b1-4)GlcNAc(b1-2)Man(a1-3)[GalNAc(b1-4)GlcNAc(b1-2)Man(a1-6)]Man(b1-4)GlcNAc(b1-4)GlcNAc
# How it was run: as §1
# [3] = molecular target: GalNAc(b1-4)GlcNAc(b1-3)GalNAc(b1-4)GlcNAc
# How it was run: as §1
# GalNAc(b1-4)GlcNAc6S = molecular target: GalNAc(b1-4)GlcNAc6S
# How it was run: as §1
# GalNAc(b1-6)GalNAc = molecular target: GalNAc(b1-6)GalNAc
# How it was run: as §1
# GalNAc3S(b1-4)GlcNAc = molecular target: GalNAc3S(b1-4)GlcNAc
# How it was run: as §1
# GalNAc3S(b1-4)GlcNAc3S = molecular target: GalNAc3S(b1-4)GlcNAc3S
# How it was run: as §1
# [4] = molecular target: GalNAc3S(b1-4)[Fuc(a1-3)]GlcNAc
# How it was run: as §1
# GalNAc4S6S(b1-4)GlcNAc = molecular target: GalNAc4S6S(b1-4)GlcNAc
# How it was run: as §1
# GalNAc6S(b1-4)GlcNAc = molecular target: GalNAc6S(b1-4)GlcNAc
# How it was run: as §1
# Glc(a1-4)Glc = molecular target: Glc(a1-4)Glc
# How it was run: as §1
# [5] = molecular target: Glc(a1-4)Glc(a1-4)Glc(a1-4)Glc
# How it was run: as §1
# Glc(a1-6)Glc(a1-6)Glc = molecular target: Glc(a1-6)Glc(a1-6)Glc
# How it was run: as §1
# [6] = molecular target: Glc(a1-6)Glc(a1-6)Glc(a1-6)Glc
# How it was run: as §1
# Glc(b1-4)Glc = molecular target: Glc(b1-4)Glc
# How it was run: as §1
# Glc(b1-6)Glc = molecular target: Glc(b1-6)Glc
# How it was run: as §1
# GlcA(b1-3)Gal = molecular target: GlcA(b1-3)Gal
# How it was run: as §1
# GlcA(b1-3)GlcNAc = molecular target: GlcA(b1-3)GlcNAc
# How it was run: as §1
# GlcA(b1-6)Gal = molecular target: GlcA(b1-6)Gal
# How it was run: as §1
# [7] = molecular target: GlcA3S(b1-3)Gal(b1-4)GlcNAc(b1-2)Man
# How it was run: as §1
# [8] = molecular target: GlcA3S(b1-3)Gal(b1-4)GlcNAc(b1-3)Gal(b1-4)Glc
# How it was run: as §1
# [9] = molecular target: GlcNAc(a1-3)Gal(b1-4)GlcNAc
# How it was run: as §1
# [10] = molecular target: GlcNAc(a1-4)Gal(b1-3)GlcNAc
# How it was run: as §1
# [11] = molecular target: GlcNAc(a1-4)Gal(b1-4)GalNAc
# How it was run: as §1
# [12] = molecular target: GlcNAc(a1-4)Gal(b1-4)GlcNAc
# How it was run: as §1
# [13] = molecular target: GlcNAc(a1-4)Gal(b1-4)GlcNAc(b1-3)Gal(b1-4)Glc
# How it was run: as §1
# [14] = molecular target: GlcNAc(a1-4)Gal(b1-4)GlcNAc(b1-3)Gal(b1-4)GlcNAc
# How it was run: as §1
# [15] = molecular target: GlcNAc(a1-4)Gal(b1-4)GlcNAc(b1-3)Gal(b1-4)GlcNAc(b1-3)Gal(b1-4)GlcNAc
# How it was run: as §1
# [16] = molecular target: GlcNAc(a1-4)Gal(b1-4)GlcNAc(b1-3)Gal(b1-4)[Fuc(a1-3)]GlcNAc(b1-3)Gal(b1-4)[Fuc(a1-3)]GlcNAc
# How it was run: as §1
# [17] = molecular target: GlcNAc(a1-6)Gal(b1-4)GlcNAc
# How it was run: as §1
# [18] = molecular target: GlcNAc(b1-2)Gal(b1-3)GalNAc
# How it was run: as §1
# [19] = molecular target: GlcNAc(b1-2)Man(a1-3)[GlcNAc(b1-2)Man(a1-6)]Man(b1-4)GlcNAc(b1-4)GlcNAc
# How it was run: as §1
# [20] = molecular target: GlcNAc(b1-2)Man(a1-3)[GlcNAc(b1-2)Man(a1-6)]Man(b1-4)GlcNAc(b1-4)[Fuc(a1-6)]GlcNAc
# How it was run: as §1
# [21] = molecular target: GlcNAc(b1-2)Man(a1-3)[GlcNAc(b1-4)][GlcNAc(b1-2)Man(a1-6)]Man(b1-4)GlcNAc(b1-4)GlcNAc
# How it was run: as §1
# [22] = molecular target: GlcNAc(b1-2)Man(a1-3)[GlcNAc(b1-4)][GlcNAc(b1-2)Man(a1-6)]Man(b1-4)GlcNAc(b1-4)[Fuc(a1-6)]GlcNAc
# How it was run: as §1
# [23] = molecular target: GlcNAc(b1-2)[GlcNAc(b1-4)]Man(a1-3)[GlcNAc(b1-2)Man(a1-6)]Man(b1-4)GlcNAc(b1-4)GlcNAc
# How it was run: as §1
binder,measurement,setting,value
B1,glycan array binding signal (z-score),GalNAc(b1-4)GlcNAc,0.195
same,glycan array binding signal (z-score),[1],-0.484
same,glycan array binding signal (z-score),[2],-0.25
same,glycan array binding signal (z-score),[3],-0.542
same,glycan array binding signal (z-score),GalNAc(b1-4)GlcNAc6S,-0.228
same,glycan array binding signal (z-score),GalNAc(b1-6)GalNAc,-0.281
same,glycan array binding signal (z-score),GalNAc3S(b1-4)GlcNAc,-0.031
same,glycan array binding signal (z-score),GalNAc3S(b1-4)GlcNAc3S,0.462
same,glycan array binding signal (z-score),[4],0.2
same,glycan array binding signal (z-score),GalNAc4S6S(b1-4)GlcNAc,0.452
same,glycan array binding signal (z-score),GalNAc6S(b1-4)GlcNAc,-0.249
same,glycan array binding signal (z-score),Glc(a1-4)Glc,-0.203
same,glycan array binding signal (z-score),[5],-0.019
same,glycan array binding signal (z-score),Glc(a1-6)Glc(a1-6)Glc,-0.094
same,glycan array binding signal (z-score),[6],0.259
same,glycan array binding signal (z-score),Glc(b1-4)Glc,-0.378
same,glycan array binding signal (z-score),Glc(b1-6)Glc,-0.314
same,glycan array binding signal (z-score),GlcA(b1-3)Gal,0.175
same,glycan array binding signal (z-score),GlcA(b1-3)GlcNAc,-0.091
same,glycan array binding signal (z-score),GlcA(b1-6)Gal,1.12
same,glycan array binding signal (z-score),[7],0.494
same,glycan array binding signal (z-score),[8],1.64
same,glycan array binding signal (z-score),[9],-0.472
same,glycan array binding signal (z-score),[10],-0.251
same,glycan array binding signal (z-score),[11],-0.031
same,glycan array binding signal (z-score),[12],-0.04
same,glycan array binding signal (z-score),[13],-0.066
same,glycan array binding signal (z-score),[14],-0.047
same,glycan array binding signal (z-score),[15],-0.357
same,glycan array binding signal (z-score),[16],0.592
same,glycan array binding signal (z-score),[17],-0.158
same,glycan array binding signal (z-score),[18],-0.059
same,glycan array binding signal (z-score),[19],-0.047
same,glycan array binding signal (z-score),[20],-0.213
same,glycan array binding signal (z-score),[21],0.043
same,glycan array binding signal (z-score),[22],-0.505
same,glycan array binding signal (z-score),[23],-0.106
